From the supplement of paper PMC10369915
Some of the results follow. No stated cut-off is given here; in the data, active = 3.2 or more and inactive = the rest. Most of these values are background signal.

Assays:
Test in all cases: enrichment score (SH2-bound / input frequency) (ratio); bacterial display of known human phosphotyrosine sites (pTyr-Var adds point mutants) read by sequencing; higher = stronger binding; tyrosines were phosphorylated by kinases first
Conditions in all cases: peptide library: pTyr-Var
[1] = target: SHP2 C-SH2 domain E139D
[2] = target: SHP2 C-SH2 domain wild-type
[3] = target: SHP2 N-SH2 domain L43F
[4] = target: SHP2 N-SH2 domain T42A
[5] = target: SHP2 N-SH2 domain T52S
[6] = target: SHP2 N-SH2 domain wild-type

Measured: enrichment score
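Further: displayed peptides selected on beads carrying the immobilized SH2 domain, with library peptides lacking any tyrosine serving as negative controls.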

GDEVEYMSVSF [GCLC_Y53_L55S]
inactive: [1] 0.694 | [2] 0.64 | [3] 0.819 | [4] 0.695 | [5] 0.528 | [6] 0.739

RENGPYYTSYP [GDAP2_Y487]
inactive: [1] 0.758 | [2] 0.836 | [3] 0.728 | [4] 0.575 | [5] 0.654 | [6] 0.576

RENGPYFTSFP [GDAP2_Y487_YF]
inactive: [1] 0.806 | [2] 0.648 | [3] 0.683 | [4] 0.419 | [5] 0.652 | [6] 0.74

ENGPFYASFPP [GDAP2_Y488_T489A_YF]
inactive: [1] 0.914 | [2] 0.841 | [3] 0.589 | [4] 0.597 | [5] 0.661 | [6] 0.815

PYYTSYPPSPD [GDAP2_Y491]
inactive: [1] 0.833 | [2] 0.79 | [3] 0.911 | [4] 0.968 | [5] 0.819 | [6] 0.872

PFFASYPPSPD [GDAP2_Y491_T489A_YF]
inactive: [1] 1.65 | [2] 0.913 | [3] 0.985 | [4] 1.21 | [5] 1.54 | [6] 1.44

PFFTSYPPSPD [GDAP2_Y491_YF]
inactive: [1] 0.961 | [2] 0.967 | [3] 1.3 | [4] 1.03 | [5] 1.21 | [6] 1.01

VKMLLYTEVTR [GDI1_Y93]
inactive: [1] 1.88 | [2] 1.81 | [3] 1.52 | [4] 2.05 | [5] 1.52 | [6] 1.7

VKMLPYTEVTR [GDI1_Y93_L92P]
inactive: [1] 1.13 | [2] 0.908 | [3] 0.999 | [4] 1.25 | [5] 0.963 | [6] 0.928

AAESTYDKILK [GDNF_Y156_T154S]
inactive: [1] 0.703 | [2] 0.506 | [3] 0.622 | [4] 0.465 | [5] 0.492 | [6] 0.503

EIRTQYEAMAS [GFAP_Y242]
inactive: [1] 0.506 | [2] 0.422 | [3] 0.603 | [4] 0.447 | [5] 0.498 | [6] 0.63

EILTQYEAMAS [GFAP_Y242_R239L]
inactive: [1] 0.887 | [2] 0.688 | [3] 0.771 | [4] 0.763 | [5] 0.754 | [6] 0.777

EIRTQDEAMAS [GFAP_Y242_Y242D]
inactive: [1] 0.352 | [2] 0.294 | [3] 0.371 | [4] 0.351 | [5] 0.411 | [6] 0.356

VNFDYYTVNLG [GFPT1_Y367_D366Y]
inactive: [1] 1.92 | [2] 1.56 | [3] 1.74 | [4] 1.83 | [5] 1.96 | [6] 1.67

PKEQKYSFLQN [GH1_Y68]
inactive: [1] 0.714 | [2] 0.635 | [3] 0.59 | [4] 0.466 | [5] 0.623 | [6] 0.84

PKEQRYSFLQN [GH1_Y68_K67R]
inactive: [1] 0.576 | [2] 0.692 | [3] 0.721 | [4] 0.659 | [5] 0.522 | [6] 0.737

PKEQKYSFLQD [GH1_Y68_N73D]
inactive: [1] 0.723 | [2] 0.858 | [3] 0.789 | [4] 0.622 | [5] 0.692 | [6] 0.446

KVDKEYEVRVR [GHR_Y226]
inactive: [1] 0.812 | [2] 0.726 | [3] 0.634 | [4] 0.638 | [5] 0.678 | [6] 0.752

KVDKEYEVHVR [GHR_Y226_R229H]
inactive: [1] 0.655 | [2] 0.627 | [3] 0.593 | [4] 0.575 | [5] 0.806 | [6] 0.732

KVDKECEVRVR [GHR_Y226_Y226C]
inactive: [1] 0.676 | [2] 0.898 | [3] 0.717 | [4] 0.626 | [5] 0.761 | [6] 0.874

PIQLFYTRKNT [GHR_Y86_R89K]
inactive: [1] 0.24 | [2] 0.271 | [3] 0.372 | [4] 0.345 | [5] 0.285 | [6] 0.328

DDERGYRRVRS [GIGYF2_Y268]
inactive: [1] 0.351 | [2] 0.381 | [3] 0.346 | [4] 0.315 | [5] 0.396 | [6] 0.378

GSLEDYVRETN [GIMAP6_Y176]
inactive: [1] 0.646 | [2] 0.635 | [3] 0.563 | [4] 0.684 | [5] 0.85 | [6] 0.624

RYLKDYGEFEV [GINS1_Y156_C152Y]
inactive: [1] 0.849 | [2] 0.796 | [3] 0.811 | [4] 0.683 | [5] 0.88 | [6] 0.828

RFLKDYGEFEV [GINS1_Y156_C152Y_YF]
inactive: [1] 1.12 | [2] 0.938 | [3] 1.04 | [4] 0.707 | [5] 1.15 | [6] 0.87

SDQPDYDSVAS [GIT2_Y392_N387S]
inactive: [1] 0.46 | [2] 0.437 | [3] 0.379 | [4] 0.384 | [5] 0.513 | [6] 0.459

IKEFKYGIEEH [GJA1_Y137_K134E]
inactive: [1] 0.993 | [2] 0.902 | [3] 0.954 | [4] 0.81 | [5] 0.894 | [6] 0.864

MSPPGYKLVNG [GJA1_Y286_T290N]
inactive: [1] 1.42 | [2] 1.16 | [3] 1.11 | [4] 1.03 | [5] 1.36 | [6] 1.02

MSPPGYKLLTG [GJA1_Y286_V289L]
inactive: [1] 0.984 | [2] 0.902 | [3] 0.952 | [4] 0.737 | [5] 0.925 | [6] 1.06

HLSPEYKQNEI [GJB1_Y243_R238H]
inactive: [1] 0.569 | [2] 0.64 | [3] 0.654 | [4] 0.761 | [5] 0.458 | [6] 0.68

SDVNKYSTAFG [GJB3_Y16_G12D]
inactive: [1] 0.616 | [2] 0.61 | [3] 0.657 | [4] 0.465 | [5] 0.589 | [6] 0.701

DTCPPYVLSQG [GJB4_Y237]
inactive: [1] 0.766 | [2] 1.03 | [3] 0.735 | [4] 0.594 | [5] 0.631 | [6] 0.91

DTCPPYVLSQV [GJB4_Y237_G242V]
inactive: [1] 0.816 | [2] 0.889 | [3] 0.808 | [4] 0.552 | [5] 0.824 | [6] 0.839

SSVPDYLAAVD [GLB1_Y154_D151V]
inactive: [1] 0.916 | [2] 0.938 | [3] 0.797 | [4] 0.825 | [5] 0.886 | [6] 1

VASSLYDILAR [GLB1_Y294]
inactive: [1] 1.46 | [2] 1.11 | [3] 1.15 | [4] 0.704 | [5] 1.12 | [6] 1.23

VASSLYDIFAR [GLB1_Y294_L297F]
inactive: [1] 1.57 | [2] 1.41 | [3] 1.46 | [4] 1.19 | [5] 1.34 | [6] 1.44

MGRVKYGAYIN [GLB1_Y485_N484K]
inactive: [1] 2.07 | [2] 2.04 | [3] 2.05 | [4] 1.75 | [5] 1.69 | [6] 2
